Test results from PubChem BioAssay AID1345082 (National Center for Advancing Translational Sciences (NCATS), 2018).
The campaign covered roughly 94,000 compounds. About 4,000 (4.3%) were called active. Inconclusive results, whose numbers are uncertain, are shown with a selection of clear calls. The call rests on the fitted dose curve; in most records, active means well fitted inhibition curve with a large enough effect; inconclusive means small, poorly fitted or top-dose-only effect; inactive means no such curve, though single readings can be large or run the other way. Potencies beside an inconclusive call are fits to weak or partial responses and may not hold up.

experiment: Cytotoxic Profiling in NIH 3T3 Cell Line of Diverse Libraries Using Quantitative High-Throughput Screening; conditions: NIH 3T3 viability, CellTiter-Glo ATP luminescence, 48-72 h; activity change, negative = cytotoxicity: at 96.7 µM (top of the series) unless noted; series mostly up to 96.7 µM; further: nearly all actives have a fitted effect of over 55% in size
Excerpt: Cell-based phenotypic screening is a commonly used approach to discover biological pathways, novel drug targets, chemical probes and high-quality hit-to-lead molecules. Many hits identified from high-throughput screening campaign are ruled out through a series of follow-up potency, selectivity/specificity, and cytotoxicity assays. Prioritization of molecules with little or no cytotoxicity for a more in-depth downstream evaluation influence the future direction of projects, so cytotoxicity profiling of the screening libraries at early stage is essential for increasing the likelihood of candidate success. In this study, we analyzed results from a cell-based cytotoxicity screening campaign, comprising nearly 10,000 compounds in NCATS annotated libraries, and over 100,000 compounds in a diversity library, evaluated in four normal cell lines (HEK 293, NIH 3T3, CRL-7250 and HaCat) and a cancer cell line (KB 3-1, a HeLa subline) with overall screening outcomes, hit rates, pan-activity and selectivity. For the annotated library, we also examined the primary targets and mechanistic pathways regularly associated with cell death. To our knowledge, this is the first study to use high-throughput screening to profile large libraries for cytotoxicity assessment in both normal and cancer cell lines. In summary, the results generated here constitutes a valuable resource for the scientific community and provides insight on identifying cytotoxic compounds with particular mechanisms of action, and prioritizing compounds with suitable cytotoxicity profile for further evaluation.
NIH 3T3 cells were seeded into white 1536-well plates using a Multidrop Combi peristaltic dispenser (ThermoFisher, Waltham, MA) at a density of 400 cells/well in 5 uL of medium respectively. A pintool (Kalypsys) was used to transfer 23 nL of compound solution to the 1536-well assay plates. After 48 or 72 hr incubation at 37 degree Celsius, 5% CO2 and 95% humidity, 2.5 uL of CellTiter-Glo (Promega) was dispensed into each well using a dispenser (Aspect Automation, St. Paul, MN) with solenoid valves (Lee Valves, Westbrook CT). Plates were left at room temperature for 10 min before imaging the ATP-coupled luminescence using a ViewLux microplate imager (PerkinElmer, Waltham, MA).
On the % scale 0 is the no-effect control and ±100 the full control effect; potency means the concentration at half of the fitted maximal effect; tags describe the fitted curve by direction and shape.

SMILES | activity change, negative = cytotoxicity | Potency | outcome
O=C(NC1CCCCCC1)c1ccc2oc(-c3ccnc(Cl)c3)nc2c1 | inactive: -20.1% |  | 
Cc1ccc(CN2CCC3(CCNCC3)C2)c(Cl)c1Cl |  | inconclusive: 22.4 µM [inhibitor, full curve, poor fit] | 
C=CCCC(CN1CCCOCC1)Oc1ccc2cccc(OC)c2n1 (stereo not given) |  | inconclusive: 50.1 µM [inhibitor, partial curve, poor fit] | 
CCN1C(=O)C2CC3(CCN(C(=O)c4cnccc4C)CC3)CN2C1=O (stereo not given) | inactive: -7.74% |  | 
Cc1nccc(N2CCC(COc3ccc4c(cnn4CC[S+](C)(=O)[O-])c3)CC2)n1 |  | inconclusive: 44.7 µM [inhibitor, partial curve, poor fit] | 
CNc1ccc(OC2CCN(C(=O)NCCc3ccccc3)CC2)nc1 |  | inconclusive: 39.8 µM [inhibitor, partial curve] | 
COc1ccc2cc(CN3CCCC(C#N)C3)c(-c3cccs3)nc2c1 (stereo not given) |  | inconclusive: 89.1 µM [inhibitor, partial curve, poor fit] | 
CN1C(=O)Cc2ccccc2C1C(=O)N1CCN(c2ccc(Cl)cc2)CC1 (stereo not given) |  | inconclusive: 50.1 µM [inhibitor, single point] | 
Cc1noc(C)c1-c1cnc(Nc2ccc(CN3CCN(C)CC3)cc2)c2c1CCO2 |  | inconclusive: 50.1 µM [inhibitor, partial curve, poor fit] | 
CCN(Cc1ccncc1)C(=O)c1coc(COc2cccc(C(F)(F)F)c2)n1 |  | inconclusive: 44.7 µM [inhibitor, partial curve] | 
CC(=O)N1CCN(C(=O)C[C@@H]2C[C@@H](C(C)C)[C@H](CNC(=O)Nc3cccc(F)c3)C=C2C)CC1 |  | inconclusive: 35.5 µM [inhibitor, partial curve] | 
CC(=O)Nc1cccc(-c2nccc3c(=O)cc(N4CCOCC4)oc23)c1 |  | inconclusive: 79.4 µM [inhibitor, partial curve, poor fit] | 
Cc1cc(C)c(CN2CCC(n3cc(C(C)(C)N)nn3)CC2)c(C)c1 |  | active: 79.4 µM | 
COc1cc(C)c(-c2nc(CN3CCCC(CN)C3)c(C)o2)cc1C (stereo not given) |  | active: 25.1 µM | 
O=C1NC2(CCN(C(=O)c3cccnc3)C2)N=C1c1ccccn1 (stereo not given) | inactive: 1.07% [at 138 µM] |  | 
CS(=O)(=O)N1CC2(CCCCN2Cc2cccnc2)Cc2ccccc21 (stereo not given) | inactive: -14.4% |  | 
N#Cc1ccc(CN2CCCC(c3nc(-c4cnccn4)no3)CCNC(=O)CC2)cc1 (stereo not given) | inactive: -17.8% |  | 
COc1ccc(CN2C=C(C(=O)OCc3noc(-c4cccc(OC)c4)n3)C(C)=NS2(=O)=O)cc1 |  | inconclusive: 25.1 µM [inhibitor, full curve, poor fit] | 
CC1(C(=O)N2CCOCC2)CN(Cc2ccccc2)Cc2ccc(Nc3ccccc3)nc21 (stereo not given) |  | inconclusive: 44.7 µM [inhibitor, partial curve, poor fit] | 
Cc1noc(C)c1CC(=O)N1CCCC(COc2ccccc2C(=O)NC(C)C)C1 (stereo not given) |  | inconclusive: 44.7 µM [inhibitor, partial curve, poor fit] | 
O=C(c1ccncc1)N1CCCN(CCc2ccccc2)c2ccccc21 |  | inconclusive: 44.7 µM [inhibitor, partial curve, poor fit] | 
COc1ccc(-c2cc(C(=O)NCc3cccs3)nn3cnnc23)cc1 | inactive: -44.2% |  | 

SMILES | activity change, negative = cytotoxicity | Potency | outcome
Cc1ccc(-c2c(C(=O)NCCc3ccccc3)nc3sccn23)cc1 |  | active: 17.8 µM | 
C[S+](=O)([O-])c1cccc(-c2nnc3ccc(C(=O)NC4CCCC4)cn23)c1 | inactive: -10.2% |  | 
Cc1ccc(NC(=O)N2CCC(CCNC(=O)C(C)C)CC2)cc1F | inactive: -6.48% |  | 
COc1cc(Cl)ccc1-c1ccc(COc2ccc3c(cnn3CCC(=O)O)c2)cc1 | inactive: -16.7% [at 138 µM] |  | 
O=C(NCCc1ccccc1)[C@@H]1C[C@H](c2ccc(F)cc2)N([S+](=O)([O-])C2CC2)C1 |  | inconclusive: 79.4 µM [inhibitor, partial curve, poor fit] | 
COCc1nc(CCNC(=O)COc2ccc(F)cc2)no1 |  |  | inactive
OC[C@@H]1CN(Cc2cccc3[nH]ccc23)C[C@H]1c1ccncc1 | inactive: -8.93% |  | 
O=C(Nc1cc(F)cc(C(F)(F)F)c1)N1CCCOC(Cn2cccn2)C1 (stereo not given) |  | inconclusive: 12.6 µM [inhibitor, full curve, poor fit] | 
C=CCNC(=O)N1C[C@@H](C(=O)OCC)[C@@H]2Oc3c(C)cccc3[C@@H]21 |  | inconclusive: 50.1 µM [inhibitor, partial curve, poor fit] | 
Cc1ccc(Nc2ccnc(N3CCCC(C(=O)NCC4CCCCCC4)C3)n2)cc1 (stereo not given) |  | inconclusive: 39.8 µM [inhibitor, partial curve] | 
O=C(c1ccccc1F)N1CCC2(CC1)CC(N(Cc1ccc(F)cc1)C1CC1)CCO2 (stereo not given) |  | inconclusive: 50.1 µM [inhibitor, partial curve, poor fit] | 
Cn1c(=O)c2ccnn2c2ccc(C(=O)Nc3ccc(N4CCOCC4)cc3)cc21 |  | inconclusive: 39.8 µM [inhibitor, partial curve, poor fit] | 
CC(=O)Nc1cccc(-c2ccc3ncn(-c4ccc(F)cc4F)c(=O)c3n2)c1 |  | inconclusive: 89.1 µM [inhibitor, partial curve] | 
CN(C)CC(=O)N1CCC2(C1)CN(C)c1ccc(C(=O)Nc3ccccc3)cc12 (stereo not given) |  | inconclusive: 112 µM [inhibitor, single point] | 
Cc1ccccc1-c1nc2cnccn2c1NCCC(=O)N(C)Cc1ccccc1 | inactive: -3.14% |  | 
Cn1cnc(CN2CCNc3cc(Nc4ccccc4)ncc3C2)c1 |  | inconclusive: 39.8 µM [inhibitor, full curve] | 
COCCCNC(=O)c1cn2cc(-c3cccc(C(F)(F)F)c3)sc2n1 |  | inconclusive: 31.6 µM [inhibitor, partial curve, poor fit] | 
CC(C)CNC(=O)C(C)(C)Oc1nn(C(C)C)c2ccc(CN3CCOCC3)cc12 |  | inconclusive: 14.1 µM [inhibitor, full curve, poor fit] | 
N#Cc1ccc(C(=O)N2CCC3(CC2)NC(=O)N(Cc2ccc(Cl)cc2)C3=O)cc1 |  | active: 15.8 µM | 
Cc1ccc(CNC[C@H]2Cn3cc(-c4ccccc4)nc3CO2)cc1 |  | inconclusive: 126 µM [inhibitor, single point] | 
O=C(c1nnc(CN2CCN(c3ccccn3)CC2)n1Cc1ccccc1)N1CCC[C@@H]1c1ccc(Br)cc1 |  | inconclusive: 44.7 µM [inhibitor, partial curve, poor fit] | 
O=C(c1cccc(F)c1)N1CCCC(n2cc(-c3nc(-c4ccccc4)no3)nn2)C1 (stereo not given) |  | inconclusive: 28.2 µM [inhibitor, partial curve] | 

SMILES | activity change, negative = cytotoxicity | Potency | outcome
CN(CC1CCN(CCc2ccc(F)cc2)CC1)C1CCN(Cc2cccnc2)CC1 |  | inconclusive: 50.1 µM [inhibitor, partial curve, poor fit] | 
COCCN1C(=O)c2ccccc2C(C(=O)N2CCC(C)CC2)C12CCCC2 (stereo not given) | inactive: -17.7% |  | 
COc1ccc(C2Cn3nnc(-c4noc(-c5cccs5)n4)c3CO2)cc1 (stereo not given) | inactive: -7.95% |  | 
CC1(COc2ccccc2)COc2ccc(C(=O)N3CCOCC3c3ccncc3)cc2N1 (stereo not given) |  | inconclusive: 44.7 µM [inhibitor, partial curve, poor fit] | 
Cc1noc(C)c1-c1nccc2c(=O)cc(-c3cccnc3)oc12 |  | inconclusive: 112 µM [inhibitor, single point] | 
Cc1noc(C)c1[S+](=O)([O-])N1CCCC(C(=O)N2CCC(N3Cc4cccn4C3=O)CC2)C1 (stereo not given) | inactive: -35.6% |  | 
Cc1nc(-c2ccc(OC3CCN(C(=O)Nc4ccccc4)C3)cc2)no1 (stereo not given) |  | inconclusive: 39.8 µM [inhibitor, partial curve, poor fit] | 
Cc1noc(C)c1C(=O)N1CCCC2(Cc3ccccc3CN2C(=O)C2CCCC2)C1 (stereo not given) |  | inconclusive: 89.1 µM [inhibitor, partial curve, poor fit] | 
Cn1cccc1C(=O)N1CCN(c2cc(-c3ccc(Cl)cc3)[nH]n2)CC1 |  | inconclusive: 44.7 µM [inhibitor, partial curve, poor fit] | 
CC(C)(Oc1nn(Cc2cccc(Cl)c2)c2ccccc12)C(=O)NCCCn1ccnc1 |  | active: 31.6 µM | 
COc1nc2c(cc1CNC(=O)C1CCCO1)C(=O)N(CCc1ccccn1)C2 (stereo not given) |  |  | inactive
COc1ccc2nc([C@H]3CCN(Cc4ccc(F)c(F)c4)C3)[nH]c2c1 |  | inconclusive: 89.1 µM [inhibitor, partial curve, poor fit] | 
O=C(C1CCCC1)N1CCC2(CC1)CC(c1cccc(C(F)(F)F)c1)=NO2 |  | inconclusive: 44.7 µM [inhibitor, partial curve, poor fit] | 
COc1ccc(Cn2c3c(c(=O)n2Cc2ccccc2)CCN(C(=O)c2ccnn2C)C3)cc1 |  | active: 35.5 µM | 
CN1CCN(C(=O)C[C@@H]2CCNC[C@@H]2Cc2cc(-c3ccc(C(C)(C)C)cc3)on2)CC1 |  | active: 79.4 µM | 
COc1ccc(NC(=O)C2CN(S(=O)(=O)c3cccnc3)CC23CCCCC3)cc1F (stereo not given) |  | inconclusive: 70.8 µM [inhibitor, single point] | 
COC[C@H]1C[C@@H](NC(=O)Nc2ccc(C(F)(F)F)cc2)[C@H](O)[C@@H]1O | inactive: -3.64% [at 138 µM] |  | 
CCCN(CC1CCOC1)C(=O)Nc1ccc2c(c1)OCCO2 (stereo not given) | inactive: -15.5% |  | 
O=C(N1CCOCC1)N1CCC2(CC1)CC(c1cccc(C(F)(F)F)c1)=NO2 | inactive: -28.1% |  | 
O=C(NC1CC1)c1nc2cccnc2n(C2CCCC2)c1=O | inactive: -23.4% [at 138 µM] |  | 
Cc1ccccc1-c1ccnc(-c2nnc(C)n2Cc2ccccc2)c1 |  | inconclusive: 89.1 µM [inhibitor, partial curve, poor fit] | 
